# Laboratory results taken from the supplement of paper PMC8728848.
# This is one part of the list.
# B1: MVL (Microcystis viridis), Q9RHG4 (protein)
# chain: MASYKVNIPAGPLWSNAEAQQVGPKIAAAHQGNFTGQWTTVVESAMSVVEVELQVENTGIHEFKTDVLAGPLWSNDEAQKLGPQIAASYGAEFTGQWRTIVEGVMSVIQIKYTF
# Legend:
# Assay in all cases: glycan array binding signal (z-score within array); higher = stronger binding
# Settings in all cases: glycan notation: IUPAC condensed, linker removed
# Fuc(a1-3)GlcNAc = target: Fuc(a1-3)GlcNAc
# Method in brief: (§1)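 From the Consortium for Functional Glycomics database, 3228 arrays were curated, keeping only those whose protein sequence was available. Binding is given as a within-array Z-score averaged across arrays sharing a protein sequence and across linkers. Negative Z-scores can be read as non-binding.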
# [1] = target: Fuc(a1-3)[Gal(b1-4)]Glc6S
# Method in brief: as §1
# [2] = target: Fuc(a1-3)[Gal(b1-4)]GlcNAc
# Method in brief: as §1
# [3] = target: Fuc(a1-3)[Gal(b1-4)]GlcNAc(b1-2)Man(a1-3)[Fuc(a1-3)[Gal(b1-4)]GlcNAc(b1-2)Man(a1-6)]Man(b1-4)GlcNAc(b1-4)GlcNAc
# Method in brief: as §1
# [4] = target: Fuc(a1-3)[Gal(b1-4)]GlcNAc(b1-2)Man(a1-6)[Gal(b1-4)GlcNAc(b1-2)Man(a1-3)]Man(b1-4)GlcNAc(b1-4)GlcNAc
# Method in brief: as §1
# [5] = target: Fuc(a1-3)[Gal(b1-4)]GlcNAc(b1-3)Gal(b1-3)[Fuc(a1-4)]GlcNAc
# Method in brief: as §1
# [6] = target: Fuc(a1-3)[Gal(b1-4)]GlcNAc(b1-3)Gal(b1-4)[Fuc(a1-3)]GlcNAc
# Method in brief: as §1
# [7] = target: Fuc(a1-3)[Gal(b1-4)]GlcNAc(b1-3)Gal(b1-4)[Fuc(a1-3)]GlcNAc(b1-3)Gal(b1-4)[Fuc(a1-3)]GlcNAc
# Method in brief: as §1
# [8] = target: Fuc(a1-3)[Gal(b1-4)]GlcNAc(b1-4)Gal(b1-4)[Fuc(a1-3)]GlcNAc
# Method in brief: as §1
# [9] = target: Fuc(a1-3)[Gal(b1-4)]GlcNAc(b1-4)Gal(b1-4)[Fuc(a1-3)]GlcNAc(b1-4)Gal(b1-4)[Fuc(a1-3)]GlcNAc
# Method in brief: as §1
# [10] = target: Fuc(a1-3)[Gal(b1-4)]GlcNAc6S
# Method in brief: as §1
# [11] = target: Fuc(a1-3)[Gal3S(b1-4)]Glc6S
# Method in brief: as §1
# [12] = target: Fuc(a1-3)[Gal3S(b1-4)]GlcNAc
# Method in brief: as §1
# [13] = target: Fuc(a1-3)[Gal3S(b1-4)]GlcNAc6S
# Method in brief: as §1
# [14] = target: Fuc(a1-3)[GalNAc(b1-4)]GlcNAc
# Method in brief: as §1
# [15] = target: Fuc(a1-3)[Neu5Ac(a2-3)]Gal(b1-4)GlcNAc(b1-3)GalNAc
# Method in brief: as §1
# Fuc(a1-4)GlcNAc = target: Fuc(a1-4)GlcNAc
# Method in brief: as §1
# Fuc(b1-3)GlcNAc = target: Fuc(b1-3)GlcNAc
# Method in brief: as §1
# Gal(a1-2)Gal = target: Gal(a1-2)Gal
# Method in brief: as §1
# Gal(a1-3)Gal = target: Gal(a1-3)Gal
# Method in brief: as §1
# Gal(a1-3)Gal(b1-3)GlcNAc = target: Gal(a1-3)Gal(b1-3)GlcNAc
# Method in brief: as §1
# Gal(a1-3)Gal(b1-4)Glc = target: Gal(a1-3)Gal(b1-4)Glc
# Method in brief: as §1
# Gal(a1-3)Gal(b1-4)GlcNAc = target: Gal(a1-3)Gal(b1-4)GlcNAc
# Method in brief: as §1
# [16] = target: Gal(a1-3)Gal(b1-4)[Fuc(a1-3)]GlcNAc
# Method in brief: as §1
# [17] = target: Gal(a1-3)Gal(b1-4)[Fuc(a1-3)]GlcNAc(b1-2)Man(a1-3)[Gal(a1-3)Gal(b1-4)[Fuc(a1-3)]GlcNAc(b1-2)Man(a1-6)]Man(b1-4)GlcNAc(b1-4)GlcNAc
# Method in brief: as §1
# Gal(a1-3)GalNAc = target: Gal(a1-3)GalNAc
# Method in brief: as §1
# [18] = target: Gal(a1-3)[Gal(a1-4)]Gal(b1-4)GlcNAc
# Method in brief: as §1
# Gal(a1-4)Gal(b1-4)Glc = target: Gal(a1-4)Gal(b1-4)Glc
# Method in brief: as §1
# Gal(a1-4)Gal(b1-4)GlcNAc = target: Gal(a1-4)Gal(b1-4)GlcNAc
# Method in brief: as §1
# [19] = target: Gal(a1-4)Gal(b1-4)GlcNAc(b1-3)Gal(b1-4)Glc
# Method in brief: as §1
# Gal(a1-4)GlcNAc = target: Gal(a1-4)GlcNAc
# Method in brief: as §1
# Gal(a1-6)Glc = target: Gal(a1-6)Glc
# Method in brief: as §1
# Gal(b1-2)Gal = target: Gal(b1-2)Gal
# Method in brief: as §1
# Gal(b1-3)Gal = target: Gal(b1-3)Gal
# Method in brief: as §1
# Gal(b1-3)Gal(b1-4)GlcNAc = target: Gal(b1-3)Gal(b1-4)GlcNAc
# Method in brief: as §1
# [20] = target: Gal(b1-3)Gal(b1-4)GlcNAc(b1-2)Man(a1-3)[Gal(b1-3)Gal(b1-4)GlcNAc(b1-2)Man(a1-6)]Man(b1-4)GlcNAc(b1-4)GlcNAc
# Method in brief: as §1
# Gal(b1-3)GalNAc = target: Gal(b1-3)GalNAc
# Method in brief: as §1
# [21] = target: Gal(b1-3)GalNAc(a1-3)[Fuc(a1-2)]Gal(b1-4)Glc
# Method in brief: as §1
# [22] = target: Gal(b1-3)GalNAc(a1-3)[Fuc(a1-2)]Gal(b1-4)GlcNAc
# Method in brief: as §1
# [23] = target: Gal(b1-3)GalNAc(b1-3)Gal(a1-4)Gal(b1-4)Glc
# Method in brief: as §1
# [24] = target: Gal(b1-3)GalNAc(b1-4)Gal(b1-4)Glc
# Method in brief: as §1
# [25] = target: Gal(b1-3)GalNAc(b1-4)[Neu5Ac(a2-3)]Gal(b1-4)Glc
# Method in brief: as §1
# Gal(b1-3)GlcNAc = target: Gal(b1-3)GlcNAc
# Method in brief: as §1
# [26] = target: Gal(b1-3)GlcNAc(b1-2)Man(a1-3)[Gal(b1-3)GlcNAc(b1-2)Man(a1-6)]Man(b1-4)GlcNAc(b1-4)GlcNAc
# Method in brief: as §1
# [27] = target: Gal(b1-3)GlcNAc(b1-2)Man(a1-3)[Gal(b1-3)GlcNAc(b1-2)Man(a1-6)]Man(b1-4)GlcNAc(b1-4)[Fuc(a1-6)]GlcNAc
# Method in brief: as §1
binder,measurement,setting,value
B1,glycan array binding signal (z-score),Fuc(a1-3)GlcNAc,-0.234
same,glycan array binding signal (z-score),[1],-0.22
same,glycan array binding signal (z-score),[2],-0.239
same,glycan array binding signal (z-score),[3],0.928
same,glycan array binding signal (z-score),[4],1.1
same,glycan array binding signal (z-score),[5],-0.224
same,glycan array binding signal (z-score),[6],-0.221
same,glycan array binding signal (z-score),[7],-0.232
same,glycan array binding signal (z-score),[8],-0.176
same,glycan array binding signal (z-score),[9],-0.233
same,glycan array binding signal (z-score),[10],-0.219
same,glycan array binding signal (z-score),[11],-0.21
same,glycan array binding signal (z-score),[12],-0.218
same,glycan array binding signal (z-score),[13],-0.227
same,glycan array binding signal (z-score),[14],-0.221
same,glycan array binding signal (z-score),[15],-0.167
same,glycan array binding signal (z-score),Fuc(a1-4)GlcNAc,-0.243
same,glycan array binding signal (z-score),Fuc(b1-3)GlcNAc,-0.237
same,glycan array binding signal (z-score),Gal(a1-2)Gal,-0.24
same,glycan array binding signal (z-score),Gal(a1-3)Gal,-0.24
same,glycan array binding signal (z-score),Gal(a1-3)Gal(b1-3)GlcNAc,-0.211
same,glycan array binding signal (z-score),Gal(a1-3)Gal(b1-4)Glc,-0.226
same,glycan array binding signal (z-score),Gal(a1-3)Gal(b1-4)GlcNAc,-0.239
same,glycan array binding signal (z-score),[16],-0.244
same,glycan array binding signal (z-score),[17],0.321
same,glycan array binding signal (z-score),Gal(a1-3)GalNAc,-0.229
same,glycan array binding signal (z-score),[18],-0.239
same,glycan array binding signal (z-score),Gal(a1-4)Gal(b1-4)Glc,-0.242
same,glycan array binding signal (z-score),Gal(a1-4)Gal(b1-4)GlcNAc,-0.241
same,glycan array binding signal (z-score),[19],-0.204
same,glycan array binding signal (z-score),Gal(a1-4)GlcNAc,-0.234
same,glycan array binding signal (z-score),Gal(a1-6)Glc,-0.241
same,glycan array binding signal (z-score),Gal(b1-2)Gal,-0.242
same,glycan array binding signal (z-score),Gal(b1-3)Gal,-0.24
same,glycan array binding signal (z-score),Gal(b1-3)Gal(b1-4)GlcNAc,-0.229
same,glycan array binding signal (z-score),[20],1.85
same,glycan array binding signal (z-score),Gal(b1-3)GalNAc,-0.225
same,glycan array binding signal (z-score),[21],-0.233
same,glycan array binding signal (z-score),[22],-0.228
same,glycan array binding signal (z-score),[23],-0.242
same,glycan array binding signal (z-score),[24],-0.211
same,glycan array binding signal (z-score),[25],-0.252
same,glycan array binding signal (z-score),Gal(b1-3)GlcNAc,-0.24
same,glycan array binding signal (z-score),[26],1.51
same,glycan array binding signal (z-score),[27],1.57
